Hit rate of the full screen: of about 310,000 compounds, about 18,000 (5.8%) were called active. This list was built around the results that the source calls inconclusive (neither active nor inactive); the mix of calls is not that of the screen. Calls come from the whole dose curve; as a rule, active = well fitted inhibition curve with a large enough effect; inconclusive = small, poorly fitted or top-dose-only effect, or another doubt; inactive = no such curve, though single readings can be large or run the other way. No potency is given beside an inconclusive call; the fits are too rough. More than one record can exist for a structure, and the calls need not agree.
Experiment: Primary qHTS for delayed death inhibitors of the malarial parasite plastid, 48 hour incubation
Details: P. falciparum luciferase growth in erythrocytes; series mostly up to 28.7 µM; activity change, negative = inhibition: at the top concentration
Method in brief: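 In quantitative HTS format, infected erythrocytes bearing luciferase-reporter parasites were treated for a single generation at 37 C. Luminescence after adding detection reagent served as the growth measure.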
% is set by controls: 0 for no effect and ±100 for the full control effect; potency is the fitted concentration of half-maximal effect; tags give direction and shape of the fitted curve.

SMILES	Potency	activity change, negative = inhibition
COc1ccccc1C(=O)NCC(=O)OC(C)C(=O)N(C)C1CCCCC1 (stereo not given)	inconclusive [inhibitor, single point]	–
Cc1ccc(C)c(N2CCN(S(=O)(=O)c3ccc4c(c3)C(C)(C)C(=O)N4C)CC2)c1	inconclusive [inhibitor, single point]	–
CCN(CC)S(=O)(=O)c1ccc(N2CCOCC2)c(NC(=O)c2ccc(NC(C)=O)cc2)c1	inconclusive [inhibitor, single point]	–
Brc1ccc(-c2csc(N3CCCCC3)n2)cc1	inconclusive [activator, partial curve]	–
COc1cccc(N2CCN(C(=O)c3cc4c(=O)n(Cc5ccccc5)ccc4nc3C)CC2)c1	inconclusive [inhibitor, partial curve]	–
CCn1cc(CN2CCN(Cc3ccccc3)C(CCO)C2)c2ccccc21 (stereo not given)	inconclusive [inhibitor, single point]	–
CCN(CC(=O)Nc1c(F)cccc1F)C(=O)CCSc1ccc(F)cc1	inconclusive [inhibitor, partial curve, poor fit]	–
COc1ccc(CCN2CC(C(=O)NCc3cccc4[nH]ccc34)CCC2=O)cc1 (stereo not given)	–	inactive: -16.4%
COc1cc(NC(=O)Cc2nn(C)c(=O)c3ccccc23)cc(OC)c1OC	active: 13.1 µM	–
NC(=O)C1CCN(C(=O)c2cccc(CN3C(=O)c4ccccc4C3=O)c2)CC1	inconclusive [inhibitor, partial curve]	–
COc1ccc(C(=O)NCC2OCCc3ccccc32)cc1 (stereo not given)	–	inactive: 33.8%
CC[N+](C)(CC)CCOC(=O)C1c2ccccc2Oc2ccccc21	active: 10.4 µM	–
OCCC1CN(Cc2nc(-c3ccccc3)cs2)CCN1CCc1ccccc1 (stereo not given)	inconclusive [inhibitor, partial curve, poor fit]	–
Cc1ccc(Nc2ccc([N+](=O)[O-])nc2[N+](=O)[O-])cc1	inconclusive [inhibitor, single point]	–
Cc1ccccc1-c1nc2cc(NC(=O)C3CC3)ccc2o1	–	inactive: 81.1%
Cc1nn(CC2CC2)c(=O)n1-c1cccc(Cl)c1	inconclusive [inhibitor, full curve, poor fit]	–
COc1ccc(/C=N/NC(=O)c2sccc2OCc2ccc(F)cc2)cc1OC	inconclusive [inhibitor, full curve, poor fit]	–
COc1ccc(Br)cc1CN(C)C(=O)CNC(=O)c1ccc2ccccc2c1	–	inactive: -14%
CN(C(=O)CC1C(=O)NCCN1Cc1ccc(F)cc1Cl)C1CCCCC1 (stereo not given)	active: 11.7 µM	–
CCOC(=O)c1ccc(NC(=O)c2cccc3c2C(=O)N(CC2CCCO2)C3)cc1 (stereo not given)	inconclusive [inhibitor, partial curve]	–
CCC(=O)c1cn([C@H](CCC(OC)OC)CC(=O)OC(C)(C)C)cc1CC	inconclusive [inhibitor, single point]	–
O=C(Nc1cccc(C(F)(F)F)c1)OCCN1CCN(Cc2ccccc2)CCC1=O	inconclusive [inhibitor, single point]	–

SMILES	Potency	activity change, negative = inhibition
CCN1CCN(CCCNC(=O)c2ccc3c(c2)N(Cc2ccccc2)CCS3)CC1	inconclusive [inhibitor, single point]	–
COc1ccccc1C(=O)Nc1ccc(NC(=O)C2CCCCC2)nc1	inconclusive [inhibitor, partial curve, poor fit]	–
COc1ccccc1CNC(=O)c1ccccc1OCc1ccc(F)cc1	inconclusive [inhibitor, single point]	–
Cc1ccc(CCNC(=O)c2nnc(CS(=O)(=O)c3ccccc3)o2)cc1	inconclusive [inhibitor, partial curve]	–
CC(=O)Nc1cc2c(cc1NC(=O)Cn1nc(-c3ccccc3F)ccc1=O)OCCO2	inconclusive [inhibitor, full curve, poor fit]	–
COc1ccc(C(CNC(=O)c2ccc(NS(=O)(=O)c3cccc([N+](=O)[O-])c3)cc2)N2CCOCC2)cc1 (stereo not given)	inconclusive [inhibitor, partial curve, poor fit]	–
CCN1CCN(c2ccc(S(=O)(=O)N3CCCCC3)cc2NC(=O)c2cccc(C)c2[N+](=O)[O-])CC1	inconclusive [inhibitor, single point]	–
C=CCn1c(SCC(=O)NCc2ccc3c(c2)OCO3)nc2scc(-c3ccccc3)c2c1=O	inconclusive [inhibitor, single point]	–
Cc1cc(C)c(S(=O)(=O)N2CCCCC2)c(C)c1N(C)S(=O)(=O)c1ccc(Cl)cc1	active: 9.28 µM	–
O=C(O)CNS(=O)(=O)c1ccc2c3c(cccc13)C(=O)N2	inconclusive [inhibitor, full curve, poor fit]	–
COc1ccccc1N(CC(=O)NCc1ccc(F)cc1)C(=O)CCC(=O)Nc1nccs1	inconclusive [inhibitor, partial curve, poor fit]	–
CC(C)(C)c1cc(C(=O)N/N=C/c2ccc(-c3ccccc3[N+](=O)[O-])o2)n[nH]1	active: 11.7 µM	–
CC(C(=O)Nc1ccccc1-c1ccccc1)N1CCN(S(=O)(=O)c2ccccc2)CC1 (stereo not given)	active: 6.57 µM	–
Cc1ccc(C)c(S(=O)(=O)Nc2nc(C)c(C(=O)Nc3ccccc3)s2)c1	inconclusive [inhibitor, single point]	–
Cc1ccc(-n2nnnc2-c2cnc3cc4c(cc3c2C)OCO4)cc1	–	inactive: 4.36%
O=C(NC1CCCCCCC1)c1ccccc1-c1ccccc1	inconclusive [inhibitor, partial curve]	–
COC(=O)C1=C(C)N(Cc2ccccc2)C(=NCc2ccccc2)N[C@H]1c1cccc(F)c1	inconclusive [inhibitor, single point]	–
COc1ccc(/C=C2/SC(=O)N(CCC(=O)Nc3ccccc3)C2=O)cc1OC	–	inactive: 18%
Brc1ccc(C=Nc2ccc(Nc3ccccc3)cc2)s1	inconclusive [inhibitor, single point]	–
O=C(Nc1cc(=O)[nH]c2nc(-c3ccc(Cl)cc3)nn12)c1ccccc1	active: 0.586 µM	–
COc1cc(/C=C/C(=O)NC(C)C)ccc1OCc1ccccc1	active: 13.1 µM	–
CCNc1nc(NCC)nc(SCCOc2ccc(C)cc2)n1	inconclusive [inhibitor, partial curve, poor fit]	–

SMILES	Potency	activity change, negative = inhibition
COc1ccccc1NC(=O)c1ccc(NC(=O)COC(=O)CCC2CCCC2)cc1	–	inactive: -17.8%
CS(=O)(=O)NN1C(=O)c2ccccc2NC12CCCC2	–	inactive: -5.25%
COc1cccc(C(=O)N/N=C/c2ccc(OC)c(COc3ccccc3C(N)=O)c2)c1	inconclusive [inhibitor, partial curve]	–
O=C(CCN1C(=O)/C(=C/c2ccccc2Cl)SC1=S)N1CCOCC1	active: 13.1 µM	–
COc1ccccc1N1CCN(CC(=O)N2CCCC2)CC1	–	inactive: 19.3%
CCc1ccc(N/C(N)=N/c2nc(CSc3ccccn3)cc(=O)[nH]2)cc1	inconclusive [inhibitor, single point]	–
CC(C(=O)Nc1ccccc1Cl)c1ccc([N+](=O)[O-])cc1 (stereo not given)	inconclusive [inhibitor, partial curve, poor fit]	–
O=C1NC(=O)C(=Cc2ccc3c(c2)OCO3)C(=O)N1	–	inactive: 10.2%
OC(COC(c1ccccc1)c1ccccc1)CN1CCN(c2ccccn2)CC1 (stereo not given)	inconclusive [inhibitor, partial curve]	–
COc1ccc2c(C(=O)c3ccc(C)cc3)n(Cc3ccc(C(N)=O)cc3)[n+]([O-])c2c1	inconclusive [inhibitor, partial curve, poor fit]	–
CCOc1ccccc1N1CCN(C(=O)c2cc(S(=O)(=O)N(C)C)ccc2N2CCCC2)CC1	active: 10.4 µM	–
O=C(Nc1nc2ccccc2n1CCN1CCOCC1)c1ccc(Cn2cc([N+](=O)[O-])cn2)o1	inconclusive [inhibitor, partial curve]	–
Cn1ccnc1Sc1cc(NCCCO)c([N+](=O)[O-])c2nonc12	inconclusive [inhibitor, partial curve, poor fit]	–
COc1ccc(NC(=O)CCNC(C)=O)cc1NS(=O)(=O)c1ccc(F)cc1	–	inactive: -3.05%
O=C(Nc1ccccc1)N(Cc1ccc2c(c1)OCO2)Cc1nc2ccccc2c(=O)[nH]1	inconclusive [inhibitor, partial curve, poor fit]	–
COc1ccc(/C=N/NC(=O)c2ccc(F)cc2)cc1CN1CCc2cc(OC)c(OC)cc2C1C (stereo not given)	inconclusive [inhibitor, single point]	–
COc1ccc(C(=O)NC(C)CCn2cccn2)cc1OC1CCN(C(C)C)CC1 (stereo not given)	–	inactive: -1.36%
Cc1c(OC(C)C(=O)N[C@H](C(=O)O)c2ccccc2)ccc2c3c(c(=O)oc12)CCCC3 (stereo not given in full)	inconclusive [inhibitor, single point]	–
Cc1cccc(Nc2nnc(SC/C(O)=C(\C#N)c3nc4ccccc4[nH]3)s2)c1	inconclusive [inhibitor, single point]	–
COC(=O)c1cc(NC(=O)c2cc(-c3ccccc3Cl)oc2C(F)(F)F)ccc1N1CCOCC1	inconclusive [inhibitor, single point]	–
Cc1ccc(C)c(Oc2cc(NC(=O)CCCn3nc(C)c([N+](=O)[O-])c3C)cc([N+](=O)[O-])c2)c1	inconclusive [inhibitor, single point]	–

From PubChem BioAssay AID504832 (National Center for Advancing Translational Sciences (NCATS), 2011)
